These results are taken from paper PMC4336329 (PLoS ONE, 2015).

Structures are written as SMILES. Out of some 310,000 compounds screened, about 2,200 (0.71%) showed an effect of 50% or more. Effects have a minus sign here. Some of the results follow.

The target of this assay is human ether-à-go-go-related gene (hERG) potassium channel (human, UniProt Q12809). Nature of the assay: primary screen, population patch clamp on CHO cells stably expressing hERG.
human ether-à-go-go-related gene (hERG) potassium channel, sequence (Q12809 whole entry, looked up): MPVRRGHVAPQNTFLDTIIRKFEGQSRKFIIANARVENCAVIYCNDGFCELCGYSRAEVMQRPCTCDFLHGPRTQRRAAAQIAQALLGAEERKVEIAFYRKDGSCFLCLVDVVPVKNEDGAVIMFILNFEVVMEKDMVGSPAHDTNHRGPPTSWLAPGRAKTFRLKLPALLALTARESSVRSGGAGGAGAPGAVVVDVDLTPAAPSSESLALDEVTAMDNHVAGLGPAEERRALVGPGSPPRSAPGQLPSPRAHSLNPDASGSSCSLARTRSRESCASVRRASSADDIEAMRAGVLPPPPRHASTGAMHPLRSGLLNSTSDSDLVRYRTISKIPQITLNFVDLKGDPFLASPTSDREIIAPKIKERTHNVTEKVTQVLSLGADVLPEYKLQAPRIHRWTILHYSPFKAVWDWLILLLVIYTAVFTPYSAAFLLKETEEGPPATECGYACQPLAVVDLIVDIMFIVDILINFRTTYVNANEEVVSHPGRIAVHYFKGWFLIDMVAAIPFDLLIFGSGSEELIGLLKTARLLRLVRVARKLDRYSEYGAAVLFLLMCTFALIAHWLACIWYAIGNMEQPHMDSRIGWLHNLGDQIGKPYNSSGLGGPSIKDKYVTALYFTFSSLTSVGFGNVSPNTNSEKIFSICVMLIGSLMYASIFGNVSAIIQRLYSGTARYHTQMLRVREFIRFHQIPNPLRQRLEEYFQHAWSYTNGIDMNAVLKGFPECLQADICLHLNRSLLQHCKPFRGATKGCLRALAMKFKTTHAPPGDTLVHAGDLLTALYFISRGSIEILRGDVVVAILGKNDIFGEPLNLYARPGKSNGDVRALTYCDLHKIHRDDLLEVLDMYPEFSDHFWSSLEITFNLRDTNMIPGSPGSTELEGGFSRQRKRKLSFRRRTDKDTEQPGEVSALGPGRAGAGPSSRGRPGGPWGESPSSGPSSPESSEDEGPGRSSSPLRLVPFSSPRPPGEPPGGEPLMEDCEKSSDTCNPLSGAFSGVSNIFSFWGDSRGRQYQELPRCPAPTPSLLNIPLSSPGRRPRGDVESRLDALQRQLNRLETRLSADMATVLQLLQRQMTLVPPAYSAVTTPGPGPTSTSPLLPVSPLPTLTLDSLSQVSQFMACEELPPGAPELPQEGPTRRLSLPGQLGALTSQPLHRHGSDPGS
As for `COCCNC(=O)CSC1=N/C(=C/c2ccc(Cl)c(Cl)c2)C(=O)N1c1ccccc1F`, the “hERG current change (%, negative = inhibition) at 1uM” value stood at 12.3%.
The value for `COc1cc(NC(=O)c2cc3c(CO)cnc(C)c3oc2=Nc2cccc(C(N)=O)c2)cc(OC)c1` was 6.02%.
Under `COc1ccc(C(CNC(=O)c2c(C)nn(Cc3ccc(C)cc3)c2Cl)N2CCOCC2)cc1` (centres unmarked) stands 6.02%.
The value for `C/C(CC(=O)NC(C)(C)C)=N\NC(=O)COc1ccc(C)cc1Br` was 12.1%; that for `COc1ccccc1N(CC(=O)NCCSCc1ccc(C)cc1)S(=O)(=O)c1ccccc1` was 8%; that for `COc1nc(N(C)C)nc(-n2nnc(C(C)=O)c2C)n1` was 0.596%.
Consider `CC(=O)Nc1ccc(-c2nnc(SCc3c(C)cc(C)cc3C)n2C)cc1`, for which the “hERG current change (%, negative = inhibition) at 1uM” value was determined as 11%.
As for `O=C(Nc1nnc(-c2ccc3c(c2)OCCO3)o1)c1ccc(Cc2ccccc2)cc1`, the “hERG current change (%, negative = inhibition) at 1uM” value turned out to be 5.98%.
The value for `O=c1ccn(Cc2ccc(F)cc2)c2ccnc(C(F)(F)F)c12` was 0.268%; that for `Cc1cccc(CN2CCC(C(=O)Nc3ccc(Oc4cccnc4)cc3)CC2)c1` was 5.98%.
For the molecule `COP(=O)(OC)C(NC(=O)c1ccc(C)cc1)C(Cl)(Cl)Cl` (centres unmarked), the “hERG current change (%, negative = inhibition) at 1uM” value is 10.1%.
Turning to `CCS(=O)(=O)N1CCN(C2CCC(c3ccccc3)CC2)CC1.O=C(O)C(=O)O` (centres unmarked), the “hERG current change (%, negative = inhibition) at 1uM” value is reported as -1.29%.
In the case of `C=C(C)C1CC=C(C)/C(=N\NC(=O)CCC(=O)Nc2ccc(C)c(C)c2)C1` (centres unmarked), the “hERG current change (%, negative = inhibition) at 1uM” value is reported as 17.3%.
The value for `Cc1ccccc1-c1ncc(CN2CCC(CO)(CCCc3ccccc3)CC2)cn1` was 15.6%.
Under `Cc1cccn2cc(-c3ccc(Cl)cc3)nc12` stands 17.9%; under `Clc1ccc(C2C3=C(Nc4ncnn42)c2ccccc2CC3)cc1` (centres unmarked), -10.7%; under `Cc1csc(NC(=O)Cc2ccccc2Cl)n1`, 16.9%.
The value for `Cc1cccc(N2CCN(Cc3nc(CC4CC4)no3)CC2)n1` was 7.51%; that for `COc1ccc(N(CCC#N)S(=O)(=O)c2cccc3nsnc23)cc1` was 4.71%; that for `O=C(O)CCC(=O)N1N=C(c2ccccc2)CC1c1ccc2c(c1)OCO2` (centres unmarked) was 11.1%.
Consider `O=C(COc1ccccc1Cl)NCCCN1CCOCC1`, for which the “hERG current change (%, negative = inhibition) at 1uM” value amounted to 7%.
For `O=C(OCc1cncs1)c1ccccc1`, the “hERG current change (%, negative = inhibition) at 1uM” value was found to be 20.4%.
Under `CC(=O)OCC(=O)Nc1ccc(SC(F)F)cc1` stands 1.43%; under `Cc1ccc(C(C(=O)NCc2ccco2)N(C(=O)Cn2nnc3ccccc32)c2ccccc2)o1` (centres unmarked), 5.83%; under `COc1ccc(NC(=O)c2sc3nc(N4CCOCC4)c4c(c3c2N)CC(C)(C)OC4)cc1`, 11.4%.
`Cc1ccc(C)c(NC(=O)CSc2nnc(Cc3cccn3C)n2-c2ccc(F)cc2)c1`: the “hERG current change (%, negative = inhibition) at 1uM” value is 4.58%.
Under `Cc1c(NS(=O)(=O)c2ccccc2)cc(Cl)c(O)c1C` stands 7.8%; under `Cn1nc(-c2ccccc2)c(COC(=O)c2cccc(Cl)c2)c1S(=O)(=O)c1ccccc1`, 1.22%; under `Cc1cc(C)cc(N(CCC#N)C(=O)COC(=O)CNC(=O)c2sc3ccccc3c2Cl)c1`, 4.98%.
The value for `CCc1ccc2c(COC(=O)CNS(=O)(=O)c3ccc(NC(C)=O)cc3)cc(=O)oc2c1` was 3.34%; that for `CCOC(=O)c1c(C)n(Cc2ccco2)c2ccc(OC)cc12` was -13.9%; that for `CCOP(=O)(OCC)c1nc(-c2ccccc2)oc1N1CCCCC1` was 10.5%.
`Cc1ccc(Nc2nc(C)cs2)cc1`: the “hERG current change (%, negative = inhibition) at 1uM” value came out at 5.56%.
As for `Nc1nc(NCCCN2CCOCC2)nc(Nc2ccc(Cl)cc2)c1[N+](=O)[O-]`, the “hERG current change (%, negative = inhibition) at 1uM” value is recorded as 14.8%.
Regarding `O=C(CCC(=O)N1CCOCC1)Nc1nnc(C2CCCCC2)s1`, the “hERG current change (%, negative = inhibition) at 1uM” value came out at 8.33%.
The value for `CCn1c(CNc2cccc(Cl)c2)nnc1SCc1ccccc1` was 6.21%.
Turning to `CC1(c2ccccc2)NC(=S)N2C1NC(=S)N2c1ccccc1` (centres unmarked), the “hERG current change (%, negative = inhibition) at 1uM” value worked out at 15.5%.
On to `CCC(Cc1ccccc1)NS(=O)(=O)c1ccc2c(c1)NC(=O)CS2` (centres unmarked), for which the “hERG current change (%, negative = inhibition) at 1uM” value turned out to be 5.69%.
Under `CCN(CC)C(=O)COc1cc(C)cc2oc(=O)c3c(c12)CCCC3` stands 10.3%; under `O=C(NC1CCCCC1)NC1CC2CCC(C1)N2C(=O)NCc1ccccc1` (centres unmarked), 13.8%; under `O=C(Nc1ccccc1)OCc1cc(-c2ccc(Cl)cc2)on1`, 17.9%.
The value for `CCOC(=O)C1=C(CNCc2ccc(C)cc2)NC(=O)NC1c1ccc(OC)cc1` (centres unmarked) was 0.903%; that for `CCOC(=O)OC(C)OC(=O)[C@@H]1N2C(=O)[C@@H](NC(=O)[C@H](N)c3ccccc3)[C@H]2SC1(C)C.Cl` (some centres unmarked) was 13.2%; that for `O=C(CSc1nc(=O)n2ccccc2n1)NCCc1ccccc1` was 6.53%.
On to `NC(=O)CSc1nnc(-c2cccs2)n1-c1ccccc1`, for which the “hERG current change (%, negative = inhibition) at 1uM” value was 15.3%.
The value for `COc1ccc(C(=O)NCCc2ccc(C)cc2)cc1OC1CCN(C(C)=O)CC1` was 9.4%; that for `O=c1[nH]c(O)c(N=Nc2ccc3c(c2)OCCO3)c(=O)[nH]1` was 15.6%.
The value for `COCCn1c(C)cc(C(=O)CSc2nc(C)cc(C)c2C#N)c1C` was 7.02%; that for `CCCCS(=O)(=O)N1CCCC(C(=O)N2CCOCC2)C1` (centres unmarked) was 13.5%; that for `Cc1ccc(SCC(=O)N2CCCC2)cc1` was -7.53%.
The value for `O=C(CSc1nnc(-c2ccccn2)n1Cc1ccccc1)Nc1ccc2c(c1)OCO2` was 7.03%; that for `FC(F)(F)c1ccccc1NC(=S)Nc1ccccc1` was 14.5%.
For `CCOc1ccc(OCCC(=O)OCC(=O)NCc2ccccc2)cc1`, the “hERG current change (%, negative = inhibition) at 1uM” value came out at 11.1%.
With `CC(C)(C)OC(=O)N1Cc2ccccc2C[C@H]1C(=O)NCC(=O)NCC1CCCO1` (some centres unmarked), the “hERG current change (%, negative = inhibition) at 1uM” value turned out to be 9.77%.
The value for `O=C(COc1cccc2cccnc12)Nc1ccccc1N1CCOCC1` was -10.4%; that for `CN1CCC(N(C)C(=S)NC(=O)c2cc(-c3cccc(Br)c3)nc3ccccc23)CC1` was 16.5%; that for `CC(C)C(=O)Nc1ccc(Cc2ccc(NC(=O)C(C)C)c(O)c2)cc1O` was 4.54%.
For `COc1ccc(CNC(=O)CN2C(=O)NC(C)(c3cccc4ccccc34)C2=O)cc1OC` (centres unmarked), the “hERG current change (%, negative = inhibition) at 1uM” value was 13.6%.
The value for `Cc1ccc(S(=O)(=O)N2CCOCC2)cc1NC(=O)C(c1ccc(Cl)cc1)C(C)C` (centres unmarked) was 15%; that for `Cc1cccnc1NC(=O)c1cccc(S(=O)(=O)N2CCN(c3ccc(F)cc3)CC2)c1` was 7.08%.
With `Cc1ccc(C)c(OCC(=O)NCC(C)C)c1C`, the “hERG current change (%, negative = inhibition) at 1uM” value is reported as 8.82%.
Under `CCOC(=O)N1CCN(CC(O)COCc2ccc(OC)c(OC)c2)CC1.Cl` (centres unmarked) stands 14.7%; under `CCOC(=O)N1CCN(C(=O)CN(c2ccc(Cl)c(C(F)(F)F)c2)S(C)(=O)=O)CC1`, -3.38%; under `CCCCN(C(=O)c1c(CC)noc1C)c1c(N)n(CCC)c(=O)[nH]c1=O`, 8.72%.
The value for `C=CCNc1nc(Cl)nc(Nc2ccccc2)n1` was 9.97%; that for `c1ccc(CSc2n[nH]c(-c3ccco3)n2)cc1` was 8.18%; that for `CC(OC(=O)c1nc(Cl)ccc1Cl)C(=O)c1ccccc1` (centres unmarked) was 8.95%.
As for `CCOCCCn1c(=S)[nH]c2cc(C(=O)N3CCC(C(N)=O)CC3)ccc2c1=O`, the “hERG current change (%, negative = inhibition) at 1uM” value was -3.34%.
As for `CS(=O)(=O)N1Cc2ccccc2CC1C(=O)O` (centres unmarked), the “hERG current change (%, negative = inhibition) at 1uM” value is given as 11.1%.
The value for `CCOC(=O)C1(CCOc2ccccc2)CCN(Cc2ccc(OCC)c(CO)c2)CC1` was -82.4%.
Under `CCNC(=O)NC(=O)C(C)OC(=O)CCS(=O)(=O)c1ccc(C)cc1` (centres unmarked) stands 13.9%; under `CCOc1ccc(S(=O)(=O)NN)cc1`, 15.1%.
The value for `CCN1CCN(C(CNC(=O)c2ccc3c(c2)OCO3)c2cccnc2)CC1` (centres unmarked) was -3.31%; that for `C=CCn1c(SCCC(=O)O)nc2c1c(=O)n(C)c(=O)n2C` was 22%; that for `CSc1ncccc1C(=O)Nc1ccc(F)c(F)c1F` was 11.6%.
Regarding `O=C(CSc1nnc2ccc(-c3ccc(Br)cc3)nn12)NCC1CCCO1` (centres unmarked), the “hERG current change (%, negative = inhibition) at 1uM” value stood at 11.2%.
The value for `CC(C)OC(=O)CSc1nc2ncc(Cl)cc2[nH]1` was 16%.
For the molecule `CCCn1c(=O)c(C(=O)NNS(=O)(=O)c2ccc(C)cc2)c(O)c2ccccc21`, the “hERG current change (%, negative = inhibition) at 1uM” value worked out at 9.73%.
The value for `CCOC(=O)NNC(=O)CCn1c2c(c3ccccc31)CCCC2` was 6.89%.
`COc1ccc(OCC(=O)NNC(=O)C(=O)N2CCCC2)cc1`: the “hERG current change (%, negative = inhibition) at 1uM” value was 2.07%.
With `COc1ccc(-c2noc3c2-c2nc(-c4ccccc4)sc2CC3)cc1`, the “hERG current change (%, negative = inhibition) at 1uM” value worked out at 10.3%.
As to `O=C(Oc1cc(Cl)cc(Cl)c1)c1cnc2n(c1=O)CCS2`, the “hERG current change (%, negative = inhibition) at 1uM” value was 11.3%.
Under `Cc1ccc(S(=O)(=O)N2CCSC2C(=O)O)cc1` (centres unmarked) stands 7.63%; under `Cc1cccc(-n2nc([N+](=O)[O-])c(N3CCN(C(=O)c4ccco4)CC3)[n+]2[O-])c1`, -26.4%.
Take `COC(=O)c1ccc(CSc2n[nH]c(=S)s2)o1`: the “hERG current change (%, negative = inhibition) at 1uM” value was determined as 11.5%.
As for `COCC(C)n1c(C)cc(C(=O)COC(=O)CN=C2NS(=O)(=O)c3ccccc32)c1C` (centres unmarked), the “hERG current change (%, negative = inhibition) at 1uM” value amounted to 16.7%.
The value for `Cc1ccc(CNC(=O)CCC(=O)Nc2nnc(C)s2)cc1` was 10.9%.
Consider `CC(=O)c1ccc(NC(=O)C[n+]2ccc(N(C)C)cc2)cc1.[Cl-]`, for which the “hERG current change (%, negative = inhibition) at 1uM” value is 8.13%.
Under `Cc1cccc(OCC(=O)Nc2ccccc2N2CCN(C)CC2)c1` stands 2.08%.
